Source: paper PMC12136788
The list shows a part of the results.

B1: chr7:107790313:107790314:-_ENSG00000091129_ENST00000351718|hu_mus|FALSE|FALSE (ssRNA)
RNA: GGGAGUUCUACAGUCCGACGAUCAACAUUCUUUCUACCCAUAUGUCCGUAGUAUGAGAGGGAUGACAGGUGUUCAGGAAAACCAUUCCAGAGAGAUUAGACAUUGGCACAGAGCUUAAAGACUUAAACAAAGGAGUUCAUUGCCAACAGAGGAUUGAGCAUCA
B2: chr5:145543945:145543946:-_ENSG00000133706_ENST00000545646|hu_hu|hu_hu_hu_mus_True|38_58 (ssRNA)
RNA: GGGAGUUCUACAGUCCGACGAUCCUGAACGGCCAGUGGUGGGAAAUAAUCAAGCCAGUGCUCUGCUUCAGAAAACUUUACUAUCUCGUCAUCAGAGAGGCCAAGGGAUUUCAUAAUGUCCCACUGGUACUUAGAAGAUCCUGCCAACAGAGGAUUGAGCAUCA
B3: chr14:90870812:90870813:+_ENSG00000198668_ENST00000553542|hu_hu|motif|central (ssRNA)
RNA: GGGAGUUCUACAGUCCGACGAUCAUCAAUAUCUGCUUCUCUGAUCAUUUCAUCUACUUCUUCAUCUGUUAGUUUUUCUCCGGAGUUUGUCAUGACGUGACGUAGUUCUGCUGCACUGAUAUAACCAUUGCCAUCCUUGUCAAACAACAGAGGAUUGAGCAUCA
B4: chr5:128440902:128440903:+_ENSG00000066583_ENST00000173527|hu_mus|hu_hu_hu_mus_True|1_108 (ssRNA)
RNA: GGGAGUUCUACAGUCCGACGAUCUUGAACCGUGCUCCCAAGUCCUUUGGGGUAUUGUUCCGUUAUGAUAACUGGAAUCCCUAAGAUCCGAGCUCCUUGCAACAGUCUCUGUCCCACACUAAUGAUGUCCCCAAAGUACUUGAUCAACAGAGGAUUGAGCAUCA
B5: chr14:55655841:55655842:-_ENSG00000126787_ENST00000247191|hu_mus|motif|central (ssRNA)
RNA: GGGAGUUCUACAGUCCGACGAUCCACCCUGUGUCUGUUCUCCUUCUGAGACAGAGACUUUCUAUGAGCCAAGUUGGUUCGGACCAUCUCAGUGCUCGAGUCUUUCCGAAACCGACUGGCAAAACGUGACACCAGCAUCCUGAACAACAGAGGAUUGAGCAUCA
B6: chr1:163112212:163112213:-_ENSG00000143248_ENST00000313961|hu_hu|hu_hu_hu_mus_False|18_48 (ssRNA)
RNA: GGGAGUUCUACAGUCCGACGAUCUUUUAUUAUCAGUAAGAGUGAGUUACAUACUAGGCAAAGUAUUGGAUACAAUAAUCAGGAAACAAACACAAUUGGUCCAGAAUUUAAAACUUUUGGGAUAAAUUGCUGGCACAGGACUUACAACAGAGGAUUGAGCAUCA
B7: 88053082_88053202_5199_CDS_ENSMUSG00000038368_ENSMUST00000097992|mouse|control|control (ssRNA)
RNA: GGGAGUUCUACAGUCCGACGAUCGAGAACCUCUUGCACAGUGACUCUAUGCAUGGGACUCCUGCCAAGCAAGGCUGCUGCUGGCCCACCAGGGCCAUUCUGCUGGUGCCAUGGCAACCAACUGGCACUAAGGCCAAGGAGAAGCAACAGAGGAUUGAGCAUCA
B8: 56458565_56458685_4900_CDS_ENSG00000151914_ENST00000244364|human|control|control (ssRNA)
RNA: GGGAGUUCUACAGUCCGACGAUCAGAUUUGGCAGCUUCCAACACUCUGUUUCCAGAAAUUGUGAUGUAUCUCAAGUCACCUUUGUGAGAAAUAACGUCUUCUGAGAAACUCUUCUGCCUCUUCAAUUUGGUCAUUAAACCAUUCAACAGAGGAUUGAGCAUCA
B9: chrX:98862621:98862622:+_ENSMUSG00000034160_ENSMUST00000044475|mus_hu|mus_mus_mus_hu_False|18_38 (ssRNA)
RNA: GGGAGUUCUACAGUCCGACGAUCCUGCAUCUCCUUUAGAGUGUUUCCCAUAUUAGAGUAGGCAUCAGCAAAGGUAGGACUGAUUCGAAUAGCCUCCUUAUAGUGCAUCAGAGCUUCCUGCAGCUUGCCCUGCUGCUGCAGUACCAACAGAGGAUUGAGCAUCA
B10: 76963365_76984073_229_5pUTR_ENSMUSG00000033565_ENSMUST00000166610|mouse|control|control (ssRNA)
RNA: GGGAGUUCUACAGUCCGACGAUCGUUACCCUGAGUUACCAUUUUCUUUUUCUCCAUAAACCAGAAGAAGCAGAUGAUAACCAGUUGGAAGCCGCCGUAGCGGGGCACACCUCUGUGGCUCUCUGCCACCCCGUCCCCAGCUAGCAACAGAGGAUUGAGCAUCA
B11: chr11:46405157:46405158:+_ENSG00000110492_ENST00000395566|hu_hu|hu_hu_hu_mus_False|68_88 (ssRNA)
RNA: GGGAGUUCUACAGUCCGACGAUCCCCUCCCCACUUUGGGCACUUGGUGAGAGGGACAGAGGACAGGAUGAUUGAUUAGAGCUGACAGGAAGACAAAAGGCACUGGUGGGUUAUAUCUUGGGCCUGUGGGAGAGGAGGGCUCCGCAACAGAGGAUUGAGCAUCA
B12: chr5:5249095:5249096:-_ENSMUSG00000028926_ENSMUST00000030763|mus_mus|FALSE|FALSE (ssRNA)
RNA: GGGAGUUCUACAGUCCGACGAUCUUUAAAGUUAAUGCAUGCAUUGUUCUCAGAAUGGACCCUUUUGACUUGGUUGGCUGGUUUCUCAAAUGGGUCAAAAGUGCUCUGCGUCCUCUGAACCCUGACUUUCUUGUCUUCAGGAAUCAACAGAGGAUUGAGCAUCA
B13: chr2:198351390:198351391:-_ENSG00000144381_ENST00000345042|hu_hu|hu_hu_hu_mus_False|1_1 (ssRNA)
RNA: GGGAGUUCUACAGUCCGACGAUCUCAUUCCCACCCUCCACAGAAAGGCUGCUUCUGAACUCUCAUGUGGUGACACAGCGCUACAGUCCUGAUGCUCACAGAACAGUAGAGAUGCCUCAGUGAUUUAAGUUGAAAGCAGCAGUACAACAGAGGAUUGAGCAUCA
B14: 28713107_28714254_1622_CDS_ENSMUSG00000048271_ENSMUST00000114884|mouse|control|control (ssRNA)
RNA: GGGAGUUCUACAGUCCGACGAUCAGGCGGCGGUGGAGGAGGACUUCGCUGUUCCAAAAAAAGAUGACUGGGGAAUCUUGGUUCACCUGAAACUCCUAAGAAGAAAGGGUCUCGUUCCUGAGGUGGGGGUGGGGCUCUCCACUGCAACAGAGGAUUGAGCAUCA
B15: 10871691_10871811_498_CDS_ENSMUSG00000090112_ENSMUST00000044053|mouse|control|control (ssRNA)
RNA: GGGAGUUCUACAGUCCGACGAUCUAAACUCUCUUUGGGGAGAAGCUGAAGAGCAAAAUCUCCCAGAAAUGCUUUCCAAGAAUUAUCCACACGAUAGGGAGAAACUGUAACAUUCAAAGUCACAGACAAACGGGUCUCUUCCUCCAACAGAGGAUUGAGCAUCA
B16: chr11:100577090:100577091:-_ENSMUSG00000019173_ENSMUST00000107364|mus_mus|FALSE|FALSE (ssRNA)
RNA: GGGAGUUCUACAGUCCGACGAUCAAAGGGUGACUGCUCCAAGCCCUGUCCCCACGGAUGAGGAGCACAGGAGCAUGGCUACUACCAGCAAAGGGCAAGUGGGGGAGCGGGAGAAAGGGACCUGGGAAGAGCAGAAGAUCAUAUCAACAGAGGAUUGAGCAUCA
B17: 94012485_94012977_1247_3pUTR_ENSG00000137942_ENST00000370253|human|control|control (ssRNA)
RNA: GGGAGUUCUACAGUCCGACGAUCAGAUGAUUUAUGUCACUGCUAUGUCUUCUGUCUCCUCUCCCACCUGUUUUGCCUUCGACUUCAGAGAGCCAAGCCUCAUUCUUAUGGAUUUCCAUUCGUAGGCGGUCAAUGUUAUUCAUGCAACAGAGGAUUGAGCAUCA
B18: chr20:33097842:33097843:+_ENSG00000078747_ENST00000374864|hu_hu|FALSE|FALSE (ssRNA)
RNA: GGGAGUUCUACAGUCCGACGAUCAAAAAUAUUAAAUAGCCAAGCCCUAUAGAACUAGGGCCAGGGCUACUUCAAAUAUAACUAUUCUGUAUUUUAAAAAUAUAGGGCAGAAAGCCUUUUGGGUGAUAUUUAUAUAUUUUCACACAACAGAGGAUUGAGCAUCA
B19: chr16:94651144:94651145:+_ENSMUSG00000040785_ENSMUST00000117648|mus_hu|mus_mus_mus_hu_True|18_98 (ssRNA)
RNA: GGGAGUUCUACAGUCCGACGAUCAUUUUCUUGAAUCAAGUGACCGAUAACAUAGUCCACUGCUUCAUUUAGAAAAUUUCUGCUAGAAAAACAGGUUGUAUAGUCUUCUGUGCUCAAAACCUUCCAAGAAAGCAAUUCUUUGAGCAACAGAGGAUUGAGCAUCA
B20: chr7:141438946:141438947:+_ENSG00000106028_ENST00000265304|hu_mus|hu_hu_hu_mus_True|58_108 (ssRNA)
RNA: GGGAGUUCUACAGUCCGACGAUCGACUACCUGUAAUUAACACAGGUCUUCGAAACAUGGCUUCUGUUUUUCUUACAGUCUAAUCUUUAGGCUUUUCCUAAAGGAAAGAAAGAAAAGAGAAAAAUGAUAAAUCAAGAAACUACACAACAGAGGAUUGAGCAUCA
B21: 21814299_21815161_997_CDS_ENSMUSG00000021823_ENSMUST00000022369|mouse|control|control (ssRNA)
RNA: GGGAGUUCUACAGUCCGACGAUCUCCUAGGAUCUCCCUGCGUUCCUUGCCUGCACAAAGUUCACCAACUUUUCCAGCUUCAUCUAAGAUCUGCCUGAUGGCCUGCUCUCCAGCAUCCCCUGGGGAGGCAUUGGGGUCACGGAGCAACAGAGGAUUGAGCAUCA
B22: 44741183_44746912_2703_CDS_ENSG00000105953_ENST00000222673|human|control|control (ssRNA)
RNA: GGGAGUUCUACAGUCCGACGAUCUUUGCCGGUGCAGAAGAGAAGCCUUUUGACAUUUUCUGGGUUCUGAGCUGCAGGGCCAUCUUCUGGGAUCACCCGCUGGAAGUGGGUUCCUGGAAGCAUCUCAUCAAAGCUGGAUCUGGCCAACAGAGGAUUGAGCAUCA

The binders below were run against T1, UNK ZnF1-3 (human, UniProt Q9C0B0 31-174) (assay: nsRBNS (natural sequence RNA bind-n-seq); RBNS binding buffer (assumed for nsRBNS): 25 mM Tris pH 7.5, 150 mM KCl, 3 mM MgCl2, 0.01% Triton X-100, 500 ug/ml BSA, 20 U/ml SUPERase-In, 4 C; UNK is unkempt and MSI1 is Musashi-1; names of the RNAs are library labels; protein concentration not given here; high values mean tight binding).
T1 sequence: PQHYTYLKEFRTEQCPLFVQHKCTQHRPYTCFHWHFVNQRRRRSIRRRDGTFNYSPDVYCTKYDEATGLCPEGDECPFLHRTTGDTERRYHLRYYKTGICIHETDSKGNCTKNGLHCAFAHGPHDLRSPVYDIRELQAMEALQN
With B1 the binding signal was 2.09 enrichment R.
For B2, the binding signal was 1.07 enrichment R.
B3 was tested, and the binding signal was 0.438 enrichment R.
Work on B4 yielded a binding signal of 0.586 enrichment R.
With B5 the binding signal was 0.73 enrichment R.
Binder B6 has a binding signal of 1.5 enrichment R.
For B7, the binding signal was 0.928 enrichment R.
B8 gave a binding signal of 0.705 enrichment R.
Work on B9 yielded a binding signal of 0.992 enrichment R.
Work on B10 yielded a binding signal of 0.461 enrichment R.
With B11 the binding signal was 2.23 enrichment R.
Binder B12 has a binding signal of 0.505 enrichment R.
B13 gave a binding signal of 1.21 enrichment R.
In the case of B14, the binding signal is reported as 1.59 enrichment R.
In the case of B15, the binding signal is reported as 0.815 enrichment R.
Work on B16 yielded a binding signal of 1.4 enrichment R.
For B17, the binding signal was 0.451 enrichment R.
Binder B18 has a binding signal of 0.905 enrichment R.
B19 gave a binding signal of 0.493 enrichment R.
B20 showed a binding signal of 0.498 enrichment R.
With B21 the binding signal was 0.759 enrichment R.
For B22, the binding signal was 1.08 enrichment R.
